Patent publication US12390508B2, “Brain natriuretic peptide engrafted antibodies” (Boehringer Ingelheim International GmbH, priority 2018, dated 2025)

Tests used:
human NPRA (hNPRA) = target: T1, human NPRA (hNPRA) (Homo sapiens, UniProt P16066); experiment: cGMP quantification assay (HTRF) on stable hNPRA-CHO k1 cells (rcs, ics, pcs); assay type: cell-based; conditions: for significant activity on hNPRA cells: BNP engrafted constructs, 'in contrast' = not significantly active
T1 construct: expressed in transfected cells
T1 sequence (P16066 33-1061): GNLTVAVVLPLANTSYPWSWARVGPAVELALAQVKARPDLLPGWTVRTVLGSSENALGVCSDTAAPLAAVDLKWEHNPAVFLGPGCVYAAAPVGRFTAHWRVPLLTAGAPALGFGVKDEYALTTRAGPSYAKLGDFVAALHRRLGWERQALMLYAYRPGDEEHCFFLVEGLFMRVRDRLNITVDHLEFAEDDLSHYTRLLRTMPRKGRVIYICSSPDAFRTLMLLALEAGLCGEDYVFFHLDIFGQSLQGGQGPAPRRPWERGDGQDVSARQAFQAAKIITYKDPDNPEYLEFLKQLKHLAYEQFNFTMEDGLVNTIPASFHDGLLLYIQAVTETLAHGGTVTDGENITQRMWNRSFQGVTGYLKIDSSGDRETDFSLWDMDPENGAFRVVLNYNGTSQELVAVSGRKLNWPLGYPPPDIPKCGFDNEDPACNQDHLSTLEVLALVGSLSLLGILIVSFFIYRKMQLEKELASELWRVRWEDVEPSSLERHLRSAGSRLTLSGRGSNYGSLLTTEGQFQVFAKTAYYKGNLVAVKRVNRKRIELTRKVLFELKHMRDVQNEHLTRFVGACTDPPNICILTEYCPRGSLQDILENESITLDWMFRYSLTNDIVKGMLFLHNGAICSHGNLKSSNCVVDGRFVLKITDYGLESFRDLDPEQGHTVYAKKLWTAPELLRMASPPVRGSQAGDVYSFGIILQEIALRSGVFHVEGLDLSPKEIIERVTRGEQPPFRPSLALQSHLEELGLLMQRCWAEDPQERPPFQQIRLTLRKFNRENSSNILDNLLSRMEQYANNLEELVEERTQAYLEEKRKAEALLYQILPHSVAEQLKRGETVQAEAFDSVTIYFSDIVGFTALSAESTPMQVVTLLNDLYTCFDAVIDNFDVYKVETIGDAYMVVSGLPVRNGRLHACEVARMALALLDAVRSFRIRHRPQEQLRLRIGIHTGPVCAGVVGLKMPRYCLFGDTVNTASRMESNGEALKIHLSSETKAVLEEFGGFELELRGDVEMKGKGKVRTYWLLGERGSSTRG
Method: All activities shown in Tables 7 and 8 were measured on cells with heterologous over expression of human NPRA (hNPRA) by use of a cGMP quantification assay conducted according to manufacturer's instructions (cisbio; 62GM2PEH). In brief, the assay quantifies cGMP in buffered solution or cell-culture supernatants based on the competition between cGMP produced by the cell as result of the NPRA stimulation through the (natriuretic peptide) sample and d2 labelled cGMP for binding to a Cryptate labelled antibody. Sample cGMP and d2 labeled cGMP compete for binding to a limited number of sites on Cryptate labeled anti-cGMP antibodies, and consequently, HTRF® specific fluorescent signal (i.e. energy transfer) is inversely proportional to the concentration of cGMP in the sample.
Dose-response curve data were analyzed with GraphPad Prism (version 7.00 for Windows, GraphPad Software, La Jolla California USA) and EC50 were fitted according to Y=Bottom+(Top-Bottom)/(1+10^((LogEC50−X)*HillSlope)) applying constraints for bottom, top and slope (shared value for all data sets of the respective experiment).
The raw compound sample activity on stable hNPRA-CHO k1 cells was first assessed by comparison to the negative control TPP-5657 and to a positive sample, in particular TPP-5661. Controls and rcs were tested in quadruplets in two concentrations with a relative dilution factor of 5 aiming for a fluorescent signal (s) in the dynamic range of the assay. […] Values listed in Table 7, columns “activity rcs” and “stdev activity rcs”, represent the average of the results for the two concentrations and the respective standard deviation. Rcs signals less than half of the signal of the reference compound TPP-5661 (36%) were assessed as not active (n.a.).
The activity of several raw compound samples on stable hNPRA-CHO k1 cells was reassessed by comparison to reference sample TPP-5661 in 2.5-fold dilution series (8 concentrations) starting with a 5-fold dilution. The “log EC50” fit value as activity measure of the rcs was set in relation to the corresponding value of the reference rcs TPP-5661 by calculating the delta “log EC50”_compound−“log EC50”_TPP-5661; resulting values are listed in Table 7, column “rel. activity rcs”. […] All samples were applied in quadruplets.
The activity of isolated compound samples on stable hNPRA-CHO k1 cells was assessed by EC50 determination and comparison to reference sample TPP-5661. Samples were tested in 2.5-fold dilution series from 80 nM to 0.13 nM. The log EC50 fit value as activity measure of the ics was set in relation to the corresponding value of the reference ics TPP-5661 (−8.8) by calculating the delta log EC50_compound−log EC50_TPP-5661; resulting values are listed in Table 7, column “rel. log EC50 ics”. All samples were applied in quadruplets.
The activity of purified compound samples on stable hNPRA-CHO k1 cells was assessed in multiple experiments by EC50 determination and comparison to reference sample TPP-5661. Samples were tested in dilution series at least in quadruplets. […] The log EC50 fit value as activity measure of the pcs was set in relation to the corresponding value of the reference TPP-5661 in the respective experiment (in average −9.2, standard deviation 0.5) by calculating the delta log EC50_compound−log EC50_TPP−5661.
Purified compound samples were tested as described in Example 3 in quadruplets in dilution series on stable hNPRA-CHO k1 cells. […]

[1] = Purity of purified compound samples by capillary Gel Electrophoresis under reduced conditions; conditions: reduced conditions
Method: The purity of purified compound samples (Example 5, Table 7, column “% purity pcs”) was determined by capillary Gel Electrophoresis according to manufacturer's instructions (LabChip GX, Caliper Life Sciences) under reduced conditions. The purity in % was calculated as sum of peak areas corresponding to the intact light and heavy chain relative to the sum of all peaks observed.

[2] = Table 9 (excerpt of Table 7), capillary gel electrophoresis, sum of intact light and heavy chain peaks
[3] = purified compound samples, capillary Gel Electrophoresis

B1: TPP-10847: ANP engrafted antibody, CDRH2; HC SEQ ID NO 75, LC SEQ ID NO 66 (antibody, listed as Homo sapiens)
heavy: EVQLLESGGGLVQPGGSLRLSCAASGFTFSSYAMSWVRQAPGKGLEWVSAISGTSASLAITGPDGGSGGSLRRSSCFGGRMDRIGAQSGLGCNSFRYGSDRFSGSKSGGSTYYADSVKGRFTISRDNSKNTLYLQMNSLRAEDTAVYYCAKLTGAEYFQHWGQGTLVTVSS[in this place human IgG1 constant region]
light: QSVLTQPPSVSGAPGQRVTISCTGSSSNIGAGYDVHWYQQLPGTAPKLLIYGNSNRPSGVPDRFSGSKSGTSASLAITGLQAEDEADYYCQSYDSSLSGVVFGGGTKLTVLGQPKAAPSVTLFPPSSEELQANKATLVCLISDFYPGAVTVAWKADSSPVKAGVETTTPSKQSNNKYAASSYLSLTPEQWKSHRSYSCQVTHEGSTVEKTVAPTECS
modifications: NP engrafted HC
activity after compound preparation (pcs) (human NPRA (hNPRA); stable hNPRA-CHO k1 cells, purified compound samples): activity of #61 was shown
activity of raw compound samples (rcs) (human NPRA (hNPRA); stable hNPRA-CHO k1 cells, two concentrations, vs TPP-5657 and TPP-5661): no activity
% purity pcs [1, 2]: 97%
% purity pcs [1, 3]: 97%

B2: TPP-11156: BNP engrafted antibody with human BNP sequence; HC SEQ ID NO 443, LC SEQ ID NO 66 (antibody, listed as Homo sapiens)
heavy: EVQLLESGGGLVQPGGSLRLSCAASGFTFSSYAMSWVRQAPGKGLEWVSAISGSVVVTSHQAPGGGSGGMVQGSGCFGRKMDRISSSSGLGCKVLRRGEKKKLKSLAYGSTYYADSVKGRFTISRDNSKNTLYLQMNSLRAEDTAVYYCAKLTGAEYFQHWGQGTLVTVSS[in this place human IgG1 constant region]
light: QSVLTQPPSVSGAPGQRVTISCTGSSSNIGAGYDVHWYQQLPGTAPKLLIYGNSNRPSGVPDRFSGSKSGTSASLAITGLQAEDEADYYCQSYDSSLSGVVFGGGTKLTVLGQPKAAPSVTLFPPSSEELQANKATLVCLISDFYPGAVTVAWKADSSPVKAGVETTTPSKQSNNKYAASSYLSLTPEQWKSHRSYSCQVTHEGSTVEKTVAPTECS
modifications: NP engrafted HC
significant activity on hNPRA cells (human NPRA (hNPRA); purified compound samples): significant activity

B3: TPP-9902: BNP engrafted antibody with human BNP sequence; HC SEQ ID NO 442, LC SEQ ID NO 66 (antibody, listed as Homo sapiens)
heavy: EVQLLESGGGLVQPGGSLRLSCAASGFTFSSYAMSWVRQAPGKGLEWVSAISGSGGSTYYADSVKGRFTISRDNSKNTLYLQMNSLRAEDTAVYYCTSVHQETKKYQSSPDGGSGGMVQGSGCFGRKMDRISSSSGLGCKVLRRGSYSYTYNYEWHVDVWGQGTLVTVSS[in this place human IgG1 constant region]
light: QSVLTQPPSVSGAPGQRVTISCTGSSSNIGAGYDVHWYQQLPGTAPKLLIYGNSNRPSGVPDRFSGSKSGTSASLAITGLQAEDEADYYCQSYDSSLSGVVFGGGTKLTVLGQPKAAPSVTLFPPSSEELQANKATLVCLISDFYPGAVTVAWKADSSPVKAGVETTTPSKQSNNKYAASSYLSLTPEQWKSHRSYSCQVTHEGSTVEKTVAPTECS
modifications: NP engrafted HC
significant activity on hNPRA cells (human NPRA (hNPRA); purified compound samples): significant activity

B4: TPP-10282: ANP engrafted antibody, CDRH2; HC SEQ ID NO 69, LC SEQ ID NO 66 (antibody, listed as Homo sapiens)
heavy: EVQLLESGGGLVQPGGSLRLSCAASGFTFSSYAMSWVRQAPGKGLEWVSAISGSGSGSGSGSGSPDGGSGGSLRRSSCFGGRMDRIGAQSGLGCNSFRYGSYGSGSGSGSGSGSTYYADSVKGRFTISRDNSKNTLYLQMNSLRAEDTAVYYCAKLTGAEYFQHWGQGTLVTVSS[in this place human IgG1 constant region]
light: QSVLTQPPSVSGAPGQRVTISCTGSSSNIGAGYDVHWYQQLPGTAPKLLIYGNSNRPSGVPDRFSGSKSGTSASLAITGLQAEDEADYYCQSYDSSLSGVVFGGGTKLTVLGQPKAAPSVTLFPPSSEELQANKATLVCLISDFYPGAVTVAWKADSSPVKAGVETTTPSKQSNNKYAASSYLSLTPEQWKSHRSYSCQVTHEGSTVEKTVAPTECS
modifications: NP engrafted HC
rel. activity res (human NPRA (hNPRA); rcs, stable hNPRA-CHO k1 cells, relative to TPP-5661, higher concentrations): −0.3
% purity pcs [1, 2]: 99%
% purity pcs [1, 3]: 99%
